According to PMC7819943, “Rice protein-binding microarrays: a tool to detect cis-acting elements near promoter regions in rice”:
The list shows a part of the results.

molecular target: T1, OsWOX13 (Oryza sativa, UniProt Q5QMM3 1-267); assay: protein-binding microarray (RPBM); PBS, 2% BSA, 51.3 ng/ul salmon testes DNA, 50 uM zinc acetate, 200 nM TF, 25 C, 1 h; high values mean tight binding; details: protein: recombinant; tags: N-terminal polyhistidine and DsRed monomer fusion (pET32a); label: CyDye5-dUTP incorporated in the synthesized complementary strand; 3' TTTTT single-stranded linker to array surface; dsDNA, one strand shown
T1 sequence: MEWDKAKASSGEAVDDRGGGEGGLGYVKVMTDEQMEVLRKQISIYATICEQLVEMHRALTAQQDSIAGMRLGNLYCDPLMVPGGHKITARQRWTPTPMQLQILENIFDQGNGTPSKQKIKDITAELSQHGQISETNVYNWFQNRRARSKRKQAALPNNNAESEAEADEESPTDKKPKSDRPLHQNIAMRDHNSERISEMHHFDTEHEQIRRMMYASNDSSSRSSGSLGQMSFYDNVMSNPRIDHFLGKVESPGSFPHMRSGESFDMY
Procedure, shortened: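 An Axon 4000B scanner gave the binding signal as per-feature fluorescence intensity in arbitrary units. This followed washing of a custom Agilent array that had been incubated for 1 h at 25 °C with 200 nM protein in PBS, 2% BSA, salmon testes DNA and 50 µM zinc acetate. The proteins were transcription factors fused at the N-terminus to polyhistidine and DsRed, expressed in E. coli BL21-CodonPlus and purified on Ni–NTA.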

Which binding signal does the source give for “ACCGTTTGATTGCGTCAAGATTCGTGCTTACACGGGTGGGCGGAGTCACCTAGTGCAG” here?
Its binding signal is 38500 fluorescence intensity (a.u.).

Which binding signal does the source give for “ACCTAAGTTTGGATCCAATCATTCCTATCCGTCTCCGTTGCGGAGTCACCTAGTGCAG” here?
Its binding signal is 5730 fluorescence intensity (a.u.).

How did the binding signal turn out when “TGTGGATTGGTTTGGGGTGGATGCAGGCTGAGTAAAATAACGGAGTCACCTAGTGCAG” was run?
The binding signal was 6610 fluorescence intensity (a.u.).

How did the binding signal turn out when “GACTAAACGTATAAATTATTCTAGCTGTTGTTACACTGATCGGAGTCACCTAGTGCAG” was run?
The binding signal was 4180 fluorescence intensity (a.u.).

How did the binding signal turn out when “TTATAGTGTCTAATTAATTTAGTGTAAATGTATTCTCAATCGGAGTCACCTAGTGCAG” was run?
Its binding signal is 16100 fluorescence intensity (a.u.).

Which binding signal does the source give for “ATTGTCAAATCATAACGCAATTAGGCTCAAAGAATTCGTCCGGAGTCACCTAGTGCAG” here?
The binding signal was 11200 fluorescence intensity (a.u.).

How did the binding signal turn out when “TCCCAATCTTCTCTATCTCATTCTCCTCAAACATAGCCTTCGGAGTCACCTAGTGCAG” was run?
Its binding signal is 3910 fluorescence intensity (a.u.).

For “AGCGTGATTGACCTCTCGTTATCGTGGACTTCATTCTAAACGGAGTCACCTAGTGCAG”, which binding signal is on record?
Its binding signal is 42500 fluorescence intensity (a.u.).

Which binding signal does the source give for “TAAGATTTAAATTTTGTAGACAATATAAGCATTTATAGGACGGAGTCACCTAGTGCAG” here?
The binding signal was 7740 fluorescence intensity (a.u.).

Which binding signal does the source give for “CCCCAATCACCCCAATCCTTCTCCCGGCCGTAGACCATTTCGGAGTCACCTAGTGCAG” here?
The binding signal was 7470 fluorescence intensity (a.u.).

How did the binding signal turn out when “ATTCTTTTCTCAATCAATAACAACTCTCCACCATTTAATTCGGAGTCACCTAGTGCAG” was run?
Its binding signal is 7830 fluorescence intensity (a.u.).

Which binding signal does the source give for “TTAATTTTCTTGTAAGTTTTCAATCTAATGGATTTGAAGCCGGAGTCACCTAGTGCAG” here?
Its binding signal is 5160 fluorescence intensity (a.u.).

Which binding signal does the source give for “TTTAATCATTGACCGAATTAAACTGACTAGGAGTGAAATCCGGAGTCACCTAGTGCAG” here?
Its binding signal is 19700 fluorescence intensity (a.u.).

“GTTATCCATCTATTGCAATCATCAGAAACAATAGCCTCAGCGGAGTCACCTAGTGCAG” was tested. Which binding signal did it give?
Its binding signal is 5990 fluorescence intensity (a.u.).

Which binding signal does the source give for “ACAGAGAGAGGTAGGTGATTGATAATAAGAAAGAAGGGAACGGAGTCACCTAGTGCAG” here?
Its binding signal is 13000 fluorescence intensity (a.u.).

Which binding signal does the source give for “TTCAAAAGGTGTTGTGTATGAGCTATTGTGGGCTTGTGGCCGGAGTCACCTAGTGCAG” here?
The binding signal was 9470 fluorescence intensity (a.u.).

With “ACCGAGTGACATGACTGATAAACATATCTATATCTACTTACGGAGTCACCTAGTGCAG” as the sequence, how does the binding signal read?
Its binding signal is 6910 fluorescence intensity (a.u.).

With “CACGATTATAATCAACTTACACAATCCATAATGCCCCATCCGGAGTCACCTAGTGCAG” as the sequence, how does the binding signal read?
The binding signal was 17400 fluorescence intensity (a.u.).

Which binding signal does the source give for “GTCCACTAATTACTAAATTGCCGACTGCTAAAACAAAATGCGGAGTCACCTAGTGCAG” here?
Its binding signal is 34300 fluorescence intensity (a.u.).

How did the binding signal turn out when “GTTTATTGTACTGGATTAGTTTGTTTATTTTAAAACGAAGCGGAGTCACCTAGTGCAG” was run?
Its binding signal is 3230 fluorescence intensity (a.u.).

With “TTACAACAAGATGTTACATGATTATATTCTGATTATGGGGCGGAGTCACCTAGTGCAG” as the sequence, how does the binding signal read?
The binding signal was 5080 fluorescence intensity (a.u.).

With “AATTTTATCATACTAATTAAATAATTACTTTTGCATGAACCGGAGTCACCTAGTGCAG” as the sequence, how does the binding signal read?
The binding signal was 11000 fluorescence intensity (a.u.).

Which binding signal does the source give for “AATCGTAATCAAAACCATCAGTTTAACTGCAGCTCCAGCACGGAGTCACCTAGTGCAG” here?
Its binding signal is 4200 fluorescence intensity (a.u.).

“CCAATGATTTGGCTTTAATCCAAATATACACTATCAATATCGGAGTCACCTAGTGCAG” was tested. Which binding signal did it give?
Its binding signal is 16000 fluorescence intensity (a.u.).

With “TAATGTGATTTGTGTCCTTTCCTGTTTCACGAGAAGAAAACGGAGTCACCTAGTGCAG” as the sequence, how does the binding signal read?
Its binding signal is 10200 fluorescence intensity (a.u.).

For “ATCAATCACAATCCACAAATTAATCACAAAATCATCCCTACGGAGTCACCTAGTGCAG”, which binding signal is on record?
Its binding signal is 14600 fluorescence intensity (a.u.).

Which binding signal does the source give for “GAATCTTATTGTACTGTGTCTGGGCCATATATGCAGCCCGCGGAGTCACCTAGTGCAG” here?
Its binding signal is 4030 fluorescence intensity (a.u.).

Which binding signal does the source give for “CTTCTCCTTTTCGATCAATCAGTCTCTTTCTCTTTGTCATCGGAGTCACCTAGTGCAG” here?
The binding signal was 5190 fluorescence intensity (a.u.).

For “ATACTCTAGATAATAATTGCTAGTGGATGATGATGTGGCACGGAGTCACCTAGTGCAG”, which binding signal is on record?
Its binding signal is 4420 fluorescence intensity (a.u.).

For “CGCCGGAATGATTGTTGCAGCGCAGCAACACAGGCTAGCACGGAGTCACCTAGTGCAG”, which binding signal is on record?
Its binding signal is 9030 fluorescence intensity (a.u.).

“TGATCTCGTCTCACCAGTTAATTAACTTTAGTGTAATACTCGGAGTCACCTAGTGCAG” was tested. Which binding signal did it give?
Its binding signal is 6880 fluorescence intensity (a.u.).

How did the binding signal turn out when “ATCGTCATGATAGACTGGCTAGACGAGCTACTCTCGTTCTCGGAGTCACCTAGTGCAG” was run?
Its binding signal is 22700 fluorescence intensity (a.u.).

For “CGTGATTAGCGAGTTGCCATGGATGAGCCAGCAAGACGTGCGGAGTCACCTAGTGCAG”, which binding signal is on record?
The binding signal was 36200 fluorescence intensity (a.u.).

For “CCATGATTGTTCATACCAATAATGGGCGCAAATGGAAGACCGGAGTCACCTAGTGCAG”, which binding signal is on record?
Its binding signal is 41400 fluorescence intensity (a.u.).

“GCTAATTGGGCGATGACGGTGTCCTTGCTGGGCTGGGCCCCGGAGTCACCTAGTGCAG” was tested. Which binding signal did it give?
Its binding signal is 48800 fluorescence intensity (a.u.).

“TTATTGTATACATTGATTTTCAATTAACTTTCAAACTTGACGGAGTCACCTAGTGCAG” was tested. Which binding signal did it give?
Its binding signal is 10300 fluorescence intensity (a.u.).

How did the binding signal turn out when “TAATTAATGATCGATGATCTGACTCTACGCTTCGTTTACTCGGAGTCACCTAGTGCAG” was run?
The binding signal was 6970 fluorescence intensity (a.u.).

“AAAAGAAACTGATAACTGTCACAACATCCTAACCAACCCACGGAGTCACCTAGTGCAG” was tested. Which binding signal did it give?
Its binding signal is 3260 fluorescence intensity (a.u.).

Which binding signal does the source give for “AGTATATAATAGATAGATAGATAGATAGATAGCCTAGTTGCGGAGTCACCTAGTGCAG” here?
The binding signal was 26000 fluorescence intensity (a.u.).

“ATTGTTACATGTAATCAAGGGGTGATGGGCATATTCACAGCGGAGTCACCTAGTGCAG” was tested. Which binding signal did it give?
Its binding signal is 7040 fluorescence intensity (a.u.).

For “AGGTGATTATTACTCCCTCCGTTTCAAAATGTTTGACACCCGGAGTCACCTAGTGCAG”, which binding signal is on record?
The binding signal was 26700 fluorescence intensity (a.u.).

For “CTTAATTAACACTCGTAAGATTGACAAATAGTTGAATATCCGGAGTCACCTAGTGCAG”, which binding signal is on record?
Its binding signal is 60300 fluorescence intensity (a.u.).
